From PubChem BioAssay (NCI)
“And” between values parts separate entries of the source, which are not always exact repeats. Equal values may be shown once.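 Test compounds were applied to cells in 96-well plates for 48 hours at 5 doses. GI50 = concentration required for 50% inhibition of growth. TGI denotes the concentration required for complete inhibition of growth.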 Peptide text beside a SMILES is read from it. * marks the point of attachment. Boc = CC(C)(C)OC(=O)*; nBu = CCCC*

Test system: NCI-H322M lung
Assay: NCI anticancer screen, dose series, 48 h

`Cn1c(=O)c2c(nc(N/N=C/c3ccccc3C(=O)O)n2C)n(C)c1=O` and `Cc1c(/C=N/NC(=S)N2CCCCC2)c(=O)n(-c2ccccc2)n1C` cannot be ordered by TGI: > 100 µM for the first, > 100 µM for the second.

`COC(=O)C(=O)C(C(=O)C(=O)Nc1ccc(C)cc1C)c1nc2ccc(Cl)cc2[nH]c1=O` (centres undefined) and `Cc1ccc2nc(NS(=O)(=O)c3cc(C)c(Cl)cc3S)[nH]c2c1` cannot be ordered by TGI: > 100 µM for the first, > 100 µM for the second.

`CN(N=O)c1nc2c(C(N)=O)ncn2s1` and `CCc1n[nH]c(=O)n1/N=C(\C)c1ccccc1` cannot be ordered by TGI: > 100 µM for the first, > 100 µM for the second.

`O=P(NCCCO)(OCc1ccccc1)N(CCCl)CCCl` (centres undefined) and `CCCCCCCCCCCCCCCCNC(=O)/C(=C\c1ccc(Cl)c(Cl)c1)NC(=O)c1ccccc1` cannot be ordered by TGI: > 100 µM for the first, > 100 µM for the second.

`OCC(O)C(O)C(O)c1nn(-c2ccc(F)cc2)c2nc3cc(Cl)c(Cl)cc3nc12` (centres undefined) and `Cc1cc(Cl)ccc1NC(=O)C1C(=O)N(c2ccc(Cl)cc2C)C(=O)/C1=N\NC(N)=S` (centres undefined) cannot be ordered by TGI: > 100 µM for the first, > 100 µM for the second.

`O=[N+]([O-])c1cccc(Nc2nc(Cl)nc(Cl)n2)c1` and `O=[N+]([O-])c1ccc(-c2nn3c(C45CC6CC(CC(C6)C4)C5)nnc3s2)c(Cl)c1` cannot be ordered by TGI: > 100 µM for the first, > 100 µM for the second.

`COC(=O)c1c(O)ccc2c1c1c(n2Cc2cc(OC)cc(OC)c2)C(=O)c2ccccc2C1=O` and `CN(C)c1ccc(C(O)C2=CC(=O)c3ccccc3C2=O)cc1` (centres undefined) are within 1.5-fold of each other in TGI: 65.1 µM for the first, 91.2 µM for the second.

Compared with `O=C(Nc1ccccc1)Oc1ccc(C(=S)Nc2ccc(Br)cc2)cc1`, `O=C(/C=C/c1ccccc1O)c1ccccc1Cl` is higher in TGI: 68.9 µM for the first, > 100 µM for the second.

Going from `Cn1cnnc1[S-].[Au+].c1ccc([PH+](c2ccccc2)c2ccccc2)cc1` to `O=C1OC(=O)C([Se]c2ccccc2)=C1[Se]c1ccccc1`, the TGI rises from 3.23 µM to > 100 µM.

`O=NNc1ccc(S(=O)(=O)c2ccc3ccccc3c2)cn1` and `O=C(O)c1cc2ccccc2c(N=Nc2ccc(S(=O)(=O)Nc3ncccn3)cc2)c1O` cannot be ordered by TGI: > 100 µM for the first, > 100 µM for the second.

`COc1ccc2nc3cc(Cl)ccc3c(NCCCN3CCN(CCCNc4ccc5nnn6c7ccccc7c(=O)c4c56)CC3)c2c1` and `COc1cc(-c2nn(-c3cccc(NC(=O)CCN4CCN(c5ccccc5)CC4)c3)cc2-c2ccncc2)ccc1Cl` cannot be ordered by TGI: > 25 µM for the first, > 100 µM for the second.

`Cc1ccc(-c2cn3c(nc4ccccc43)c(/C=C/c3ccco3)n2)cc1` and `Cc1ccc(-c2cc(-c3ccc(Cl)cc3)nc(/N=C3\C(=O)N(CN(C)C)c4ccccc43)n2)cc1` cannot be ordered by TGI: > 100 µM for the first, > 100 µM for the second.

`CCCCOc1ccc(CC(NC(=O)OC(C)(C)C)C(=O)NC(C)C(=O)NC(Cc2ccccc2)C(=O)NCC(N)=O)cc1` (centres undefined) (Boc-Y(nBu)AFG-NH2; configuration not given here) and `CC(Oc1ccccc1Cl)C(=O)NN1C(=O)CC(=O)N(c2ccc(Cl)cc2)C1=S` (centres undefined) cannot be ordered by TGI: > 100 µM for the first, > 100 µM for the second.

`COc1ccc(C2NC(=S)NC3=C2CCOc2c3ccc3ccccc23)cc1` (centres undefined) and `COc1ccc(-c2c(N)noc2-c2cc(OC)c3c(c2)OCCO3)cc1` cannot be ordered by TGI: > 100 µM for the first, > 100 µM for the second.

Compared with `CC(=O)Oc1cc2cnc3c4cc(OC(C)=O)c(OC(C)=O)cc4ccc3c2cc1OC(C)=O`, `COc1cc2cc(Oc3cccc(NC(=O)Nc4cc(C(F)(F)F)cc(C(F)(F)F)c4)c3)c(C)nc2cc1OC` is 3.2-fold lower in TGI: 8.31 µM for the first, 2.57 µM for the second.

First: CC(=O)[C@H]1[C@H](O)C[C@@]2(C)[C@@H]3CCc4cc(O)c(OC5OC(CO)C(O)C(O)C5O)cc4C3(C)C(=O)C[C@]12C (some centres undefined)
Second: C=C1C(O)C2(O)OCC34C(CC5C(C)=CC(=O)C(O)C5(C)C23)OC(=O)C(OC(=O)C/C=C/CCCCCCCC)C14 (centres undefined)
The TGI of the first is higher: > 100 µM for the first, 0.238 µM for the second.

`COC(=O)c1ccc2c(c1)CC1(C2)Cc2ccccc2C1=O` (centres undefined) and `COc1ccc(Br)c(C(=O)N2CCc3ccccc32)c1N` cannot be ordered by TGI: > 100 µM for the first, > 100 µM for the second.

`Cc1ccc(S(=O)(=O)N/N=C2/CCC3(O)CC2(C)CCC2[C@H]3CC2(C)C)cc1` (some centres undefined) and `Cc1cc(O)c(/C=N/C(=S)Nc2ccc(S(N)(=O)=O)cc2)c(=O)o1` cannot be ordered by TGI: > 100 µM for the first, > 100 µM for the second.

Going from `O=C(O)CCCCC1CCSS1` (centres undefined) to `C=C1C[C@@H]2O[C@H]3[C@H]4[C@@H](CC[C@@](C)(OC(=O)CCC)[C@H]42)[C@@H](C)C(=O)O[C@@]3(C)CC[C@H]1OO`, the TGI falls from > 100 µM to 54 µM.

Compared with `C[As](C)SC1OCC(O)C(O)C1O` (centres undefined), `CC1OC(OC2C(O)C(O)C(O)C(O)C2O)C(N)CC1N=C(N)C(=O)O` (centres undefined) is higher in TGI: 10.7 µM for the first, > 100 µM for the second.

`COc1ccc(-c2nc(-c3cnccn3)n(C3OC(CO)C(O)C3O)n2)cc1` (centres undefined) and `COc1ccc(CCn2cncn2)cc1` cannot be ordered by TGI: > 10 µM for the first, > 100 µM for the second.

Going from `Cc1[nH]c(-c2ccccc2)c2nc(N(C)C)oc(=O)c12` to `COc1cc(C2S/C(=C/c3ccccc3)C(=O)N2c2cccc(NC(C)=O)c2)cc(OC)c1OC` (centres undefined), the TGI falls from > 100 µM to 84.8 µM.

`COc1cc2c3c(n(CCCNCCCNCCCN)c(=O)c2cc1OC)-c1cc2c(cc1C3=O)OCO2` and `CC1=NN(c2nc(N)nc(/C(C#N)=C\c3ccc(-c4ccc([N+](=O)[O-])cc4)o3)n2)C(C)(C)C1` cannot be ordered by TGI: > 100 µM for the first, > 100 µM for the second.

Molecule `CCOc1nc2c(N3CCCC3)nc(N3CCNCC3)nc2nc1NCc1ccccc1` has a TGI of 2.99 µM.

Compared with `Cn1cnnc1[S-].[Au+].c1ccc([PH+](c2ccccc2)c2ccccc2)cc1`, `COc1cc(-c2nn(-c3cccc(NC(=O)CCN4CCN(c5ccccc5)CC4)c3)cc2-c2ccncc2)ccc1Cl` is 1.8-fold higher in GI50: 1.69 µM for the first, 3.06 µM for the second.

Going from `COc1ccc(C2NC(=S)NC3=C2CCOc2c3ccc3ccccc23)cc1` (centres undefined) to `COc1ccc(-c2c(N)noc2-c2cc(OC)c3c(c2)OCCO3)cc1`, the GI50 falls from 60 µM to 19.3 µM (3.1-fold).

Compared with `CC(=O)Oc1cc2cnc3c4cc(OC(C)=O)c(OC(C)=O)cc4ccc3c2cc1OC(C)=O`, `COc1cc2cc(Oc3cccc(NC(=O)Nc4cc(C(F)(F)F)cc(C(F)(F)F)c4)c3)c(C)nc2cc1OC` is 1.5-fold lower in GI50: 1.79 µM for the first, 1.16 µM for the second.

First: C[As](C)SC1OCC(O)C(O)C1O (centres undefined)
Second: C=C1C[C@@H]2O[C@H]3[C@H]4[C@@H](CC[C@@](C)(OC(=O)CCC)[C@H]42)[C@@H](C)C(=O)O[C@@]3(C)CC[C@H]1OO
The GI50 of the first is 8.8-fold lower: 2.66 µM for the first, 23.5 µM for the second.

Going from `COc1cc2c3c(n(CCCNCCCNCCCN)c(=O)c2cc1OC)-c1cc2c(cc1C3=O)OCO2` to `CN(C)c1ccc(C(O)C2=CC(=O)c3ccccc3C2=O)cc1` (centres undefined), the GI50 falls from 83.4 µM to 23.8 µM (3.5-fold).

In the case of `COc1cc2ncnc(Oc3cccc(NC(=O)Nc4cc(C(C)(C)C(F)(F)F)on4)c3)c2cc1OC`, the GI50 is reported as 1.05 µM and 1.79 µM.

For `COc1cc2ncnc(Oc3cccc(NC(=O)Nc4cc(C(C)(C)C(F)(F)F)on4)c3)c2cc1OC`, the TGI was 17.3 µM and > 10 µM.
